Reference: the supplement of paper PMC4723716
Over roughly 3,600 compounds, “viability index relative to DMSO control” has its median near 0.81; the lowest 2% begin near 0.13. This is one part of the list.
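Also: 384-well serum-free SaLSSA: MitoTracker Red CMXRos staining with saponin lysis, high-content imaging, treated-well particle count divided by plate-mean count of DMSO wells.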

These compounds were tested on Plasmodium falciparum NF54 stage V gametocytes (assay: viability index relative to DMSO control (fraction); higher = less gametocyte killing). Conditions: 1.25 µM, incubation time: 72 h.
With `CCN1CCN(c2cc(C)c3cc(NC(=O)c4ccc(F)c([N+](=O)[O-])c4)ccc3n2)CC1` the viability index was 1.08.
`CCN1C(=Cc2sc3ccccc3[n+]2CC)Sc2ccccc21` gave a viability index of 0.918.
With `O=C(c1cc2cc(Br)ccc2o1)N1CCc2c([nH]c3ccccc23)C1c1ccc(Cl)cc1` (stereo not given) the viability index was 0.888.
`CC(C)(C)c1ccc(Cn2nnc3c(O)nc(C4CCN(C(=O)c5ccccc5)CC4)nc32)cc1` gave a viability index of 0.736.
With `COc1ccc(C2CC(c3cccs3)=NN2C(=O)CSc2nnc(CNC(=O)c3cccs3)n2-c2cccc(C)c2)cc1` (stereo not given) the viability index was 0.471.
Work on `COc1cccc(C=NNC(=O)CSc2ccccc2C)c1O` yielded a viability index of 1.04.
Work on `CCN1C(=O)N(CC(N)=O)C(=O)C12CCN(Cc1ccc(N(C)c3ccccc3)cc1)CC2` yielded a viability index of 0.856.
For `Cc1ccc(-c2cc(C(F)(F)F)n3nc(C(=O)Nc4cccc(Cl)c4Cl)cc3n2)cc1`, the viability index was 1.14.
Compound `Cc1cc(NS(=O)(=O)c2ccc(NC(=O)c3ccc([N+](=O)[O-])cc3)cc2)no1` has a viability index of 0.66.
`COc1ccc(Nc2nc(NN=Cc3cc4c(cc3Br)OCO4)nc(Nc3ccc([N+](=O)[O-])cc3)n2)cc1` was tested, and the viability index was 1.03.
For `O=C(C1CC1)n1cc(C(=O)C(F)(F)F)c2ccccc21`, the viability index was 0.865.
`CCOC(=O)C(=O)N1c2ccccc2-c2c(ssc2=S)C1(C)C` was tested, and the viability index was 0.781.
`CCOC(=O)C1=C(C)NC2=C(C(=O)CCC2)C1c1ccc([N+](=O)[O-])cc1` (stereo not given) showed a viability index of 0.971.
`CC(C)CN1C(=O)c2ccccc2C(C(=O)Nc2ccc(F)cc2F)C1c1cccs1` (stereo not given) showed a viability index of 0.61.
`Cc1c(Cl)cccc1NC(=O)c1cccnc1Cl` was tested, and the viability index was 0.815.
`CCOC(=O)N1CCC(n2c(SCC(=O)N3CCCCCC3)nc3ccccc3c2=O)CC1` showed a viability index of 0.892.
For `CC1Cc2ccccc2N1C(=O)Cn1c(=O)oc2ccccc21` (stereo not given), the viability index was 0.946.
Compound `CC(=O)N1CCN(c2ccc(NC(=S)NC(=O)c3ccc(C)cc3)cc2)CC1` has a viability index of 0.627.
For `Cc1nc(NN=Cc2c(O)ccc3ccccc23)cc(N2CCCCC2)n1`, the viability index was 0.507.
Work on `CCOC(=O)c1cnc2c(C)cc(C)cc2c1Nc1ccc(OC)c(OC)c1` yielded a viability index of 0.88.
Work on `CC(C)N1CCC(N2CCN(Cc3ccc4c(c3)Cc3ccccc3-4)CC2CCO)CC1` (stereo not given) yielded a viability index of 0.654.
Compound `CCOC(=O)C1=C(C)NC2=C(C(=O)CC(C)(C)C2)C1c1ccccn1` (stereo not given) has a viability index of 0.4.
`O=C(CCl)Nc1ccc2c(c1)OCO2` showed a viability index of 0.656.
`CCCC(C(=O)NCCC(C)C)N(C(=O)c1snc(C(N)=O)c1N)c1ccc(C(C)C)cc1` (stereo not given) showed a viability index of 0.92.
`CCN(CC)C(=O)c1cn(C2CCN(Cc3ccco3)CC2)nn1` was tested, and the viability index was 0.962.
`O=C(O)c1cccc(NC(=O)c2ccc(N3C(=O)c4ccc(C(=O)Nc5cccc(C(=O)O)c5)cc4C3=O)cc2)c1` showed a viability index of 1.09.
With `COc1ccc(-c2csc(Nc3ccc(O)cc3)n2)cc1OC` the viability index was 0.767.
`C=CCNc1ncnc2c1c(-c1ccccc1)cn2-c1ccccc1` gave a viability index of 1.39.
`COc1cc(OC)c(N(C)S(=O)(=O)c2cccc(C(=O)OCC(=O)Nc3ccccc3C(C)=O)c2)cc1Cl` was tested, and the viability index was 0.356.
For `Cc1c(C(=O)Nc2ccccc2)sc2ncn(Cc3ccccc3Cl)c(=O)c12`, the viability index was 1.17.
For `Cc1ccccc1Oc1cc(NC(=O)c2cc3n(n2)C(C(F)(F)F)CC(c2ccccc2)N3)cc(Oc2ccccc2C)c1` (stereo not given), the viability index was 0.81.
Compound `CC(C)N(C)Cc1cc(-c2nc3ccccc3s2)ccc1O` has a viability index of 0.875.
Compound `COc1cc(OC)cc(C(=O)NCc2n[nH]c(=S)n2-c2ccc(Br)cc2)c1` has a viability index of 0.366.
`COc1ccccc1N1CCN(C(=O)CCCCSc2nnc3c4cc(F)ccc4n(Cc4ccc(F)cc4)c3n2)CC1` gave a viability index of 0.19.
For `Clc1ncnc2ncn(Cc3ccccc3)c12`, the viability index was 0.714.
With `CCCOc1ccc(C(=O)C2=C(O)C(=O)N(CCN3CCOCC3)C2c2ccc(F)cc2)c(C)c1` (stereo not given) the viability index was 1.05.
Work on `CCN1C(=S)NC2c3cc(C)ccc3OC13CCCC23` (stereo not given) yielded a viability index of 0.59.
`COC(=O)[C@@H]1C[C@@H](NC(=O)c2ccc(OC)cc2OC)CN1Cc1cc(C)ccc1C` showed a viability index of 0.865.
For `COc1ccc(-c2c[n+](CC(=O)c3ccc(C)cc3)c3n2CCC3)cc1`, the viability index was 0.928.
In the case of `O=C(Nc1ccc(-c2nc3ccccc3[nH]2)cc1)c1ccc(-c2ccc(Cl)cc2)o1`, the viability index is reported as 0.725.
Compound `COc1ccc2c(c1OC)C(=O)N1c3ccccc3N=C(c3ccc(I)cc3)CC21` (stereo not given) has a viability index of 0.459.
`CC[n+]1c(C=C2C=C(C)OC(C)=C2)sc2ccccc21` gave a viability index of 0.778.
For `O=[N+]([O-])c1cccc(C(Nc2nccs2)c2ccc3cccnc3c2O)c1` (stereo not given), the viability index was 0.603.
With `CCOC(=O)c1cnc2ccc(OC)cc2c1Cl` the viability index was 0.494.
`S=C(NC1CCCCC1)NC1CC2CCC(C1)N2Cc1ccccc1` (stereo not given) gave a viability index of 1.03.
`COC(=O)C1=C(C)NC2=C(C(=O)CC(c3ccc(OC)c(OC)c3)C2)C1c1ccc(Cl)cc1Cl` (stereo not given) was tested, and the viability index was 0.888.
Work on `COc1cccc(-n2sc3c(c2=S)-c2cc(OC)ccc2NC3(C)C)c1` yielded a viability index of 0.693.
Work on `COc1ccc(C2CC(=O)C3=C(C2)NC(C)=C(C(=O)OC2CCCC2)C3c2ccc(Cl)cc2Cl)cc1` (stereo not given) yielded a viability index of 0.755.
`CCOC(=O)C1=C(C)NC2=C(C(=O)C(C(=O)OCC)C(c3ccc(OC)cc3)C2)C1c1ccc([N+](=O)[O-])cc1` (stereo not given) gave a viability index of 0.286.
`O=C(CCCCCN1C(=O)c2cccc3cccc(c23)C1=O)NO` was tested, and the viability index was 0.853.
In the case of `Cc1cc(Br)cc(Cl)c1OC(=O)c1ccno1`, the viability index is reported as 0.95.
In the case of `CC(C)(C)C(=O)NCCNc1ccc([N+](=O)[O-])cc1C(F)(F)F`, the viability index is reported as 0.935.
`COc1ccc2c(c1)C(C)(CC#N)C(=O)N2C` (stereo not given) showed a viability index of 0.793.
Compound `Cc1ccc(NC(=O)c2sc3nc4c(c(-c5cccs5)c3c2N)CCCC4)cc1` has a viability index of 1.17.
With `CCOc1ccc(N(C(C)=O)C2=C(N3CCN(C)CC3)C(=O)c3ccccc3C2=O)cc1` the viability index was 0.49.
